Results from PubChem BioAssay AID504832 (National Center for Advancing Translational Sciences (NCATS), 2011).
About 18,000 (5.8%) of roughly 310,000 compounds were called active. Inconclusive means that the source gave no clear call. Such entries were picked first, then a sample of the others. Calls come from the whole dose curve; as a rule, active = well fitted inhibition curve with a large enough effect; inconclusive = small, poorly fitted or top-dose-only effect, or another doubt; inactive = no such curve, though single readings can be large or run the other way. Potencies of inconclusive entries are left out as doubtful fits.

test: Primary qHTS for delayed death inhibitors of the malarial parasite plastid, 48 hour incubation; conditions: P. falciparum luciferase growth in erythrocytes; series mostly up to 28.7 µM
Method in brief: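 In quantitative HTS format, infected erythrocytes bearing luciferase-reporter parasites were treated for a single generation at 37 C. Luminescence after adding detection reagent served as the growth measure.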
% is set by controls: 0 for no effect and ±100 for the full control effect; potency is the fitted concentration of half-maximal effect; tags give direction and shape of the fitted curve.

Compound | Potency | activity change, negative = inhibition
COc1ccc(C(=O)N2CCCC(c3ccccc3)=N2)cc1 | inconclusive [inhibitor, single point] | 
CC(C)OC(=O)c1cc(C(=O)c2cc(Br)ccc2O)coc1=N | inconclusive [inhibitor, single point] | 
CCOc1ccc(S(=O)(=O)n2nc(C)cc2C)c2ccccc12 | inconclusive [inhibitor, single point] | 
CCCN(C(=O)CSc1nnnn1-c1ccccc1OC)C1CCS(=O)(=O)C1 (configuration not stated) | inconclusive [inhibitor, single point] | 
Cc1cc(NC(=O)CSc2nc(C(C)C)nc3c2c(=O)n(C)c(=O)n3C)no1 | inconclusive [inhibitor, partial curve, poor fit] | 
COc1ccc2nc(NC(=O)c3ccco3)sc2c1 | inactive | 
O=C(NCCN1CCCC1)C1CC(=O)N(C2CCCCC2)C1 (configuration not stated) | inactive | 
O=C(CN1CCC(NC(=O)Nc2ccccc2-c2ccccc2)CC1)NCc1ccco1 | inconclusive [inhibitor, partial curve, poor fit] | 
Cc1ccc(S(=O)(=O)Nc2nc3ccccc3nc2N2CCN(c3ccccc3F)CC2)cc1 | inactive | 
CC(C)(Cc1ccccc1)/[N+]([O-])=C\c1ccc(C(F)(F)F)cc1 | inconclusive [inhibitor, single point] | 
N#Cc1c(Cl)c(Cl)c2nnc(-c3ccc(Br)cc3)n2c1Cl | inconclusive [inhibitor, single point] | 
S=C(NCc1ccccc1)NNc1nc2ccccc2[nH]1 | inconclusive [inhibitor, partial curve, poor fit] | 
COC(=O)c1sccc1NC(=S)N1CCN(c2cccc(C)c2C)CC1 | inconclusive [inhibitor, single point] | 
Cc1ccc(S(=O)(=O)NCC(c2ccco2)N2CCc3ccccc3C2)cc1 (configuration not stated) | inconclusive [inhibitor, single point] | 
Cc1nc(NC(=O)c2ccc(Br)o2)ccc1Br | inactive | 
O=C(CSc1nnc(-c2cccs2)o1)Nc1cccc(S(=O)(=O)N2CCCCC2)c1 | inconclusive [inhibitor, full curve, poor fit] | 
CCOc1cc2[nH]c(=O)n(CCCCC(=O)NCc3ccco3)c(=O)c2cc1OCC | inconclusive [inhibitor, partial curve, poor fit] | 
COc1cccc(NC(=O)CSc2nnc(-c3cc(-c4ccccn4)nc4ccccc34)o2)c1 | inconclusive [inhibitor, single point] | 
Cc1cccc(NC(=S)N(CCN(C)C)Cc2cc3cccc(C)c3[nH]c2=O)c1 | inconclusive [inhibitor, single point] | 
Cc1ccccc1Nc1nc(N)nc(CSc2nnnn2C)n1 | inactive | 
CCOC(=O)c1sc(Nc2nc(C)cc(OC)n2)nc1C | inconclusive [inhibitor, single point] | 
COc1ccc(CNC(=O)CNS(=O)(=O)c2ccc(Cl)cc2)cc1 | inactive | 
Cc1ccc(Oc2ncc(-c3ccc(Cl)cc3)cn2)cc1 | inactive | 

Compound | Potency | activity change, negative = inhibition
Cc1ccc(S(=O)(=O)Oc2ccccc2/C=N/NC(=O)c2c(Cl)cnn2C)cc1 | inconclusive [inhibitor, single point] | 
COc1ccccc1NC(=O)Cc1csc(NC(=O)c2ccccc2)n1 | inactive | 
Cc1ccc(C(=O)Nc2ccc(CC(=O)O)cc2)o1 | inactive | 
CNC(=S)N1CCC(Cc2ccccc2)CC1 | inconclusive [inhibitor, single point] | 
COC(=O)[C@@]1(Cc2ccc(OC)cc2)[C@H]2c3cc(C(=O)N4CCCC4)n(CCc4c[nH]c5ccc(O)cc45)c3C[C@H]2CN1C(=O)c1ccccc1 | active: 1.04 µM | 
CCCCCCNC(=O)N1C/C=C\C(c2ccc(OC)cc2)N(Cc2ccc(F)cc2)C(=O)C1 (configuration not stated) | inconclusive [inhibitor, single point] | 
Cc1ccc(CS(=O)(=O)Cc2ccc(C(=O)NC3CCCCCC3)o2)cc1 | inconclusive [inhibitor, partial curve, poor fit] | 
O=C(Cn1ccc(NC(=O)OCc2ccccc2)nc1=O)NCCc1c[nH]c2ccccc12 | inconclusive [inhibitor, single point] | 
Cc1ccc(-c2csc3ncnc(N4CCN(C(=O)c5ccccc5)CC4)c23)cc1 | active: 8.28 µM | 
Cc1nn(Cc2ccc(Cl)cc2)c(C)c1NC(=O)CSc1nc2c(c(C(F)(F)F)n1)CCc1ccccc1-2 | inconclusive [inhibitor, full curve] | 
Cc1cccc(-c2nsc(SCC(=O)Nc3ccc4c(c3)OCO4)n2)c1 | inconclusive [inhibitor, single point] | 
CC1(C)Cc2nc3sc(C(=O)O)c(N)c3cc2CS1 | inconclusive [inhibitor, single point] | 
COCCCn1cc(C(=O)c2cc(Br)ccc2O)cc(C#N)c1=O | inconclusive [inhibitor, single point] | 
Cc1ccccc1OCc1n[nH]c(=S)n1-c1cccc(Cl)c1 | inconclusive [inhibitor, partial curve, poor fit] | 
N/C(=N\OC(=O)CCCOc1ccccc1)c1cccc(Br)c1 | inactive | 
Cc1ccc(C(=O)N2CCCC(CCC(=O)N3CCN(c4ccccn4)CC3)C2)cn1 (configuration not stated) | inconclusive [inhibitor, single point] | 
CCc1ccc2oc(-c3cccc(NC(=O)c4cccnc4)c3)nc2c1 | inactive | 
CCOC(=O)N1CCN(C(=O)C2CCN(S(=O)(=O)c3cc(C)ccc3OC)CC2)CC1 |  | inactive: -1.32% [at 5.75 µM]
COc1cc2c(cc1OC)C(C)N(C(=O)c1cc3ccccc3o1)CC2 (configuration not stated) | inconclusive [inhibitor, single point] | 
COc1cc(NC(=S)NC(=O)c2cc(C)cc(C)c2)ccc1NC(=O)c1cccs1 | inconclusive [inhibitor, single point] | 
CC(OC(=O)CCC(=O)c1ccccc1)C(=O)Nc1ccc(F)cc1 (configuration not stated) | inactive | 
Cn1c(=NC(=O)c2ccc(S(=O)(=O)N3CCCc4ccccc43)cc2)sc2cc(S(C)(=O)=O)ccc21 | inconclusive [inhibitor, full curve] | 
Nc1ccc(Oc2ccc3c(c2)C(=O)N(CC2CCCO2)C3=O)cc1 (configuration not stated) | inconclusive [inhibitor, single point] | 

Compound | Potency | activity change, negative = inhibition
CN(C)c1ccc(-c2nc3cnccn3c2Nc2ccc3c(c2)OCCO3)cc1 | inconclusive [inhibitor, single point] | 
CC(C)c1ccc(NC(=S)Nc2ccc3[nH]c(=O)[nH]c3c2)cc1 | inactive | 
COc1ccc2nc(C)cc(N/N=C/c3ccc(F)cc3)c2c1 | inconclusive [inhibitor, full curve, poor fit] | 
CCCOC(=O)c1c(-c2ccccc2)nc(CC)c(C(=O)SCC)c1CCC | inconclusive [inhibitor, single point] | 
Cc1cccc(NC(=O)C2C3C=CC4(O3)C2C(=O)N(CCCN2CCCC2)C4C(=O)NC2CCCC(C)C2C)c1 (configuration not stated) | inconclusive [inhibitor, partial curve] | 
Cc1ccc(NS(=O)(=O)c2ccc3c(c2)NC(=O)CCS3)c(C)c1 | active: 2.62 µM | 
Cc1onc(-c2ccccc2)c1NC(=O)Nc1c(-c2ccccc2)noc1C | inconclusive [inhibitor, single point] | 
CC1=NN(c2ccccc2)C(=O)/C1=C/c1c(O)[nH]c(=S)[nH]c1=O | inactive | 
NNC(=O)CCN1CCCCC1 | inconclusive [inhibitor, partial curve, poor fit] | 
O=C(c1ccccc1C(=O)N1CCN(c2ccccc2)CC1)N1CCN(c2ccccc2)CC1 | inconclusive [inhibitor, partial curve] | 
Cc1cc(C)c(C(=O)COC(=O)C2CCN(c3ccc(C(F)(F)F)cn3)CC2)c(C)c1 | inconclusive [inhibitor, single point] | 
CC(C)CNC(=O)[C@@H]1CSC2c3ccccc3C(=O)N21 (some centres not stated) | inactive | 
COc1ccc(C(=O)OCc2c(-c3cccc(OC)c3)ncc3ccccc23)cc1 | inconclusive [inhibitor, single point] | 
COc1cc2ncc(S(=O)(=O)c3ccccc3)c(N3CCC4(CC3)OCCO4)c2cc1OC | inconclusive [inhibitor, partial curve] | 
Cc1cc(Nc2c(C)n(C)n(-c3ccccc3)c2=O)c2ccccc2n1 | inactive | 
CCCc1cc(=O)oc2cc(C)c3c(C)coc3c12 | inactive | 
CCOc1ccc2oc(-c3ccccc3)c(C(=O)N3CCN(C)CC3)c2c1 | inconclusive [inhibitor, full curve] | 
Cc1ccc(S(=O)(=O)N(C)c2nc3ccccc3[nH]c2=S)cc1 | inactive | 
CC1(C)CC(CC(=O)Nc2nccs2)(c2ccccc2)CCO1 (configuration not stated) | inconclusive [inhibitor, partial curve, poor fit] | 
COC(=O)c1ccc(COC(=O)c2ccc(C)c(S(=O)(=O)N3CCCCC3)c2)cc1 | inconclusive [inhibitor, partial curve, poor fit] | 
O=C(N/C(=C\c1ccccc1)C(=O)N1CCOCC1)c1cccc(Br)c1 | inconclusive [inhibitor, partial curve] | 
